# The campaign covered roughly 52,000 compounds. About 4,300 (8.3%) were called active. Cut-off read from the data, not from the text of the source: active = survival mostly below about 52% (no sharp cut-off); inactive = mostly above about 56%. Some of the results follow.
# Tested on: DeltatarO mutant
# Assay: growth inhibition of S. aureus wild type versus tarO mutant, primary screen, teichoic acid synthesis inhibitors, RN4220, OD600 (AID 463173)
# Settings: OD600, 18 h, stronger effect = lower value, screened at 18.75 µg/mL (by protocol)
row,SMILES,survival
1,CCOc1ccccc1CNC(=O)c1cc2c(=O)n(Cc3ccccc3)ccc2nc1C,inactive: 90%
2,CC(=O)N1CCCc2cc(S(=O)(=O)N3CCCCC3)ccc21,active: 47%
3,CC1CN(S(=O)(=O)c2cccs2)C(C)CN1S(=O)(=O)c1cccs1 (stereo not drawn),inactive: 91%
4,COCCCNC(=O)CCn1c(=O)c2ccccc2n(CC(=O)Nc2c(C)cc(C)cc2C)c1=O,inactive: 91%
5,Cc1cccn2c(Nc3ccccc3)c(-c3ccc(N4CCOCC4)cc3)nc12,inactive: 113%
6,Cc1ccc(-n2c(=O)c3cccnc3n2CC(=O)Nc2cccc(C)c2C)cc1,inactive: 125%
7,CC(C)c1ccc(OC(=O)c2cc(-c3ccc4c(c3)OCCO4)on2)cc1,active: 8%
8,Cc1ccc(CNC(=O)c2nc(SCc3ccc(C)cc3)ncc2Cl)cc1,inactive: 99%
9,COc1ccc(CNC(=O)c2ccc3c(c2)N(Cc2cccc(Cl)c2)C(=O)c2ccccc2S3)c(OC)c1,inactive: 83%
10,CCc1ccccc1NC(=O)Cn1c(=O)c2cccn2c2ccc(F)cc21,inactive: 83%
11,CC(C)c1ccc(NC(=O)CSC2=Nc3ccccc3C3=NC(CC(=O)NCc4ccc(F)cc4)C(=O)N23)cc1 (stereo not drawn),inactive: 77%
12,COc1cccc(N2CCN(C(=O)c3cccc(NC(=O)c4nsc5ccccc45)c3)CC2)c1,inactive: 89%
13,Cc1sc2c(c1C)c(=O)n(CCc1ccccc1)c(=O)n2Cc1ccccc1Cl,inactive: 103%
14,COc1cc(CN(C(=O)c2ccccc2[N+](=O)[O-])c2ccccn2)cc(OC)c1OC,inactive: 78%
15,CCn1c(=O)c2cc(C(=O)N3CCN(c4cccc(Cl)c4)CC3)sc2c2ccccc21,inactive: 62%
16,CCC(=O)N1CCNC(=O)C1CC(=O)OC (stereo not drawn),inactive: 87%
17,CCN(CC)S(=O)(=O)c1ccc2c(c1)nc(CN(C)C(=O)c1cccc(Cl)c1)n2C,inactive: 71%
18,COc1ccc(CCNC(=O)C2=C(C)C(=O)OC23CCCCC3)c(OC)c1OC,inactive: 84%
19,CC1CCN(S(=O)(=O)c2ccc3c(c2)N(CC(=O)NCCCN2CCCCC2C)C(=O)CS3)CC1 (stereo not drawn),inactive: 96%
20,N#Cc1ccccc1NC(=O)c1cc2c(=O)n3ccccc3nc2s1,inactive: 64%
21,O=C(Oc1ccc(N(Cc2ccco2)C(=O)Cn2cnc3ccccc3c2=O)cc1)c1ccccc1F,inactive: 71%
22,CCOc1ccc(C(=O)Nc2nnc(SCc3cc(=O)c4cc(C)ccc4[nH]3)s2)cc1,inactive: 91%

row,SMILES,survival
1,NC(=O)Cn1cc(F)c(=O)[nH]c1=O,inactive: 87%
2,COc1cccc2sc(N(Cc3cccnc3)C(=O)COc3ccccc3)nc12,inactive: 62%
3,Cc1nn(-c2ccccc2)c(OC(=O)c2ccccc2F)c1S(=O)(=O)c1ccccc1,inactive: 89%
4,CCC1CN(S(=O)(=O)c2cc(-c3cc(C)no3)ccc2OC)c2cc(C)ccc2O1 (stereo not drawn),inactive: 109%
5,O=C(O)CN1C(=O)c2ccc(Br)cc2C1=O,inactive: 102%
6,COc1ccc(OC)c(CNC(=O)C2CCN(S(=O)(=O)c3cn(C)cn3)CC2)c1,inactive: 83%
7,COc1cc(Cl)c(C)cc1NC(=O)c1cc(CN2CCOCC2)on1,inactive: 65%
8,CN(C(=O)COc1ccccc1)c1nc(-c2ccccc2)cs1,inactive: 80%
9,CCN=C1SC(C(=O)Nc2ccc(Br)cc2)CC(=O)N1CC (stereo not drawn),inactive: 85%
10,Cc1cc(NC(=O)c2ccc3c(c2)N(Cc2cccc(Cl)c2)C(=O)c2ccccc2S3=O)ccc1Br (stereo not drawn),inactive: 87%
11,CCc1ccccc1NC(=O)Nc1cc(C(=O)NCc2ccc(C(C)C)cc2)ccc1N1CCCC1,inactive: 135%
12,CC1CCCN(Cc2c(O)ccc3c(=O)c(Oc4ccccc4Cl)c(C(F)(F)F)oc23)C1 (stereo not drawn),inactive: 88%
13,Cc1ccc(S(=O)(=O)c2cn(Cc3ccccc3F)c3cc4c(cc3c2=O)OCO4)cc1,inactive: 88%
14,CCc1ccc(Oc2nc3c(C)cccn3c(=O)c2/C=C(\C#N)c2nc3ccccc3[nH]2)cc1,inactive: 81%
15,Cc1cccc(C(=O)NCC(c2ccc3c(c2)OCO3)N2CCN(c3ccccc3F)CC2)c1 (stereo not drawn),inactive: 71%
16,COc1cc(-c2noc(CSc3nc(-c4ccccc4)cc(=O)[nH]3)n2)cc(OC)c1OC,inactive: 75%
17,COc1ccc(NC(=O)c2sc3nc4c(cc3c2N)CN(C(C)C)CC4)c(OC)c1,inactive: 63%
18,Cc1cc(=O)n2[nH]c(NCc3ccc(F)cc3)nc2n1,inactive: 102%
19,COc1ccc(S(=O)(=O)c2c(Nc3ccc(C)cc3)sc(C(=O)c3ccc(C)cc3)c2N)cc1,inactive: 105%
20,Cc1ccc(-n2nc(C)c3c(C)cc(=O)n(CC(=O)Nc4ccc(Br)cc4F)c32)cc1,inactive: 116%
21,COc1ccc(-c2ccc(CNc3ccc4[nH]c(=O)[nH]c4c3)o2)cc1Cl,inactive: 55%
22,Cc1nn(CC(=O)NC2CCCCC2)c(=O)c2cc3cc(F)ccc3n12,inactive: 93%

row,SMILES,survival
1,Cc1ccc(CSCC(=O)NCc2ccc(F)cc2)cc1,inactive: 92%
2,CCOc1ccccc1Nc1nc(-c2cccc(Cl)c2)c2c(n1)-c1ccccc1OC2,inactive: 61%
3,COc1ccc(NC(=O)Cn2cc(S(=O)(=O)c3ccc(C)cc3)c(=O)c3ccccc32)cc1OC,inactive: 62%
4,COc1ccc(-c2noc(-c3ccc(NCc4ccco4)c([N+](=O)[O-])c3)n2)cc1,inactive: 43%
5,CCOC(=O)c1cccc(NC(=O)CCc2c(C)nc3cc(-c4ccc(Cl)cc4)nn3c2C)c1,active: 35%
6,CCc1nnc(SCC(=O)N(C)c2ccccc2)c2cc3sccc3n12,inactive: 74%
7,O=C(CCCn1c(=O)c2cccn2c2ccc(F)cc21)NCCc1ccccc1,active: 47%
8,CCOC(=O)CSc1nc2ccc(NC(=O)c3ccc(F)cc3)cc2s1,inactive: 84%
9,Cc1ccc(Cl)cc1NC(=O)Nc1c(C)n(C)n(-c2ccccc2)c1=O,inactive: 128%
10,Cc1csc(NC(=O)c2c(O)c3cccc4c3n(c2=O)CCC4)n1,inactive: 88%
11,COc1ccc(N/C=C\C(=O)c2ccc3c(c2)OCO3)cc1,inactive: 92%
12,NN(CCC(=O)N1CCCCC1)C1=NS(=O)(=O)c2ccccc21,inactive: 92%
13,O=C1COc2ccccc2N1Cc1ccc(OC(F)(F)F)cc1,inactive: 86%
14,Cc1ccc([C@H]2Nc3ccc(S(=O)(=O)Nc4cccc(Cl)c4C)cc3[C@H]3C=CC[C@H]32)cc1,inactive: 50%
15,CCn1cc(CCC(=O)NCc2ccc(F)cc2)c2ccccc21,inactive: 66%
16,S=c1nc(Cc2cccs2)[nH]c2ccccc12,inactive: 100%
17,Cc1ccc(Nc2nnc(-c3ccc(C)c(S(=O)(=O)N4CCN(C)CC4)c3)c3ccccc23)c(C)c1,inactive: 90%
18,CCCCNS(=O)(=O)c1ccc(N)cc1,inactive: 55%
19,Cc1cc(C)c(Cn2c(CCNC(=O)c3ccco3)nc3ccccc32)c(C)c1,inactive: 59%
20,CCCn1c(=O)n(-c2cc(Cl)c(OC)cc2OC)c(=O)c2c3c(sc21)CN(C(C)=O)CC3,inactive: 62%
21,COc1ccc(C(=O)Nc2cc(C(C)C)c(O)c(S(=O)(=O)c3ccc(OC)cc3)c2C)cc1,inactive: 82%
22,c1ccc(Cc2nnc(SCc3nc(-c4cccs4)no3)n2-c2ccccc2)cc1,inactive: 56%

row,SMILES,survival
1,Cc1ccccc1N1CCN(S(=O)(=O)c2nnc(NC(=O)c3ccccc3)s2)CC1,active: 26%
2,CC(C)C(=O)Nc1cccc(C(=O)NCc2ccc3c(c2)OCO3)c1,inactive: 93%
3,COc1ccc(S(=O)(=O)c2c(Nc3ccc(F)cc3)sc(C(=O)c3ccc(C)cc3C)c2N)cc1,inactive: 123%
4,COc1cccc(NC(=O)c2sc3nc(C)c(C(=O)Nc4ccc(C)cc4C)c(-c4sccc4C)c3c2N)c1,inactive: 78%
5,O=c1c2oc3ccccc3c2n(Cc2cccc(F)c2)c(=O)n1Cc1ccco1,inactive: 75%
6,CC(C)c1ccc2oc(-c3cc(NC(=O)c4cccs4)ccc3Cl)nc2c1,active: 16%
7,CCCN(C(=O)c1nn(-c2ccc(OC)c(Cl)c2)c(=O)c2c1c1ccccc1n2C)c1ccccc1F,inactive: 69%
8,Cc1ccccc1C(=O)NC1CCN(CC(=O)N2CCCCC2C)CC1 (stereo not drawn),inactive: 91%
9,COc1ccc(NC(=O)c2ccc3c(=O)n4nc(Nc5cc(C)ccc5C)sc4nc3c2)cc1,inactive: 116%
10,COc1ccc(OC)c(NC(=O)Cn2cnc3sc(C)c(S(=O)(=O)N4CCN(c5ccccc5OC)CC4)c3c2=O)c1,inactive: 69%
11,CCOc1ccccc1CNC(=O)C1CCN(C2=NS(=O)(=O)C(c3ccc(C)c(C)c3)=C2C)CC1,inactive: 84%
12,CC1CC(C)CN(C(=S)Nc2ccccc2)C1 (stereo not drawn),inactive: 108%
13,COc1cccc(C(C(=O)NCc2ccco2)N(C(=O)Cn2nnc3ccccc32)C2CC2)c1OC (stereo not drawn),inactive: 107%
14,COc1ccc(C(=O)N2CCC(c3nc4ccccc4o3)CC2)cc1,inactive: 75%
15,CCOc1ccc(C(=O)NCCc2csc(-c3ccc(C(F)(F)F)cc3)n2)cc1OCC,inactive: 100%
16,Cc1ccc(-c2cnc(NC(=O)CCC(=O)N3CCCCC3)n2C)cc1,inactive: 91%
17,Cc1cccc(-c2c3c(=O)n(C)c(=O)n(C)c3cn2-c2cc(N)c(Cl)cc2Cl)c1,inactive: 49%
18,O=C(Nc1ccc(N2CCCC2)cc1)c1ccc(Br)o1,inactive: 62%
19,N#Cc1ccccc1CN1c2cccc3cccc(c23)S1(=O)=O,inactive: 106%
20,CN(C)c1oc(/C=C/c2ccc(F)cc2)nc1C#N,inactive: 74%
21,CCOC(=O)c1c(C)n(CCNC(C)=O)c2cc(Br)c(OC)cc12,inactive: 106%
22,CC(=O)c1ccc(NC(=O)Nc2nnc(N3CCCC(C)C3)s2)cc1 (stereo not drawn),inactive: 49%

# — PubChem BioAssay AID463173 (ICCB-Longwood Screening Facility, Harvard Medical School, 2010)
